# Measurements taken from patent US10351915B2 (Berg LLC, priority 2009, dated 2019).
# Assays:
# SK-MEL-28 cells [1] = test: Real-time PCR Oxidative Stress and Antioxidant Defense Array; assay type: cell-based; conditions: 100 μM Q10, 16 hr
# Procedure: Experimental details: […] (SABiosciences, Frederick, Md.). […] Further experiments were carried out using SKMEL-28 cells. […] The PCR array (SABiosciences) is a set of optimized real-time PCR primer assays on 96-well plates for pathway or disease focused genes as well as appropriate RNA quality controls. The PCR array performs gene expression analysis with real-time PCR sensitivity and the multi-gene profiling capability of a microarray.
# SK-MEL-28 cells [2] = test: Real-time PCR Diabetes Array; assay type: cell-based
# Excerpt: (SABiosciences, Frederick, Md.).
smiles,measurement,setting,value
"COC1=C(OC)C(=O)C(C/C=C(\C)CC/C=C(\C)CC/C=C(\C)CC/C=C(\C)CC/C=C(\C)CC/C=C(\C)CC/C=C(\C)CC/C=C(\C)CC/C=C(\C)CCC=C(C)C)=C(C)C1=O [Q10, Coenzyme Q10]",NCF1 mRNA level change,SK-MEL-28 cells [1],high
same,VEGFA Regulation,"SK-MEL-28 cells [2]; 100 μM Q10, after 58 hours (""then"")",down
same,ADRB3 Regulation,"SK-MEL-28 cells [2]; 100 μM Q10, at 48 hours",Down Regulated at
same,CEACAM1 Regulation,"SK-MEL-28 cells [2]; 100 μM Q10, at 48 hours",Down Regulated at
same,CEBPA Regulation,"SK-MEL-28 cells [2]; 100 μM Q10, at 48 hours",Up regulated at 48
same,CTLA4 Regulation,"SK-MEL-28 cells [2]; 100 μM Q10, at 48 hours",Down Regulated at
same,DUSP4 Regulation,"SK-MEL-28 cells [2]; 100 μM Q10, at 48 hours",Down Regulated at
same,ENPP1 Regulation,"SK-MEL-28 cells [2]; 100 μM Q10, at 48 hours",Down Regulated at
same,FOXC2 Regulation,"SK-MEL-28 cells [2]; 100 μM Q10, at 48 hours",Down Regulated at
same,G6PD Regulation,"SK-MEL-28 cells [2]; 100 μM Q10, at 48 hours",Up regulated at 48
same,HMOX1 Regulation,"SK-MEL-28 cells [2]; 100 μM Q10, at 48 hours",Down Regulated at
same,ICAM1 Regulation,"SK-MEL-28 cells [2]; 100 μM Q10, at 48 hours",Down Regulated at
same,IL4R Regulation,"SK-MEL-28 cells [2]; 100 μM Q10, at 48 hours",Down Regulated at
same,IRS2 Regulation,"SK-MEL-28 cells [2]; 100 μM Q10, at 48 hours",Down Regulated at
same,NKX2-1 Regulation,"SK-MEL-28 cells [2]; 100 μM Q10, at 48 hours",Down Regulated at
same,NSF Regulation,"SK-MEL-28 cells [2]; 100 μM Q10, at 48 hours",Down Regulated at
same,PIK3CD Regulation,"SK-MEL-28 cells [2]; 100 μM Q10, at 48 hours",Down Regulated at
same,PPARG Regulation,"SK-MEL-28 cells [2]; 100 μM Q10, at 48 hours",Down Regulated at
same,PRKCB1 Regulation,"SK-MEL-28 cells [2]; 100 μM Q10, at 48 hours",Down Regulated at
same,SELL Regulation,"SK-MEL-28 cells [2]; 100 μM Q10, at 48 hours",Down Regulated at
same,STXBP1 Regulation,"SK-MEL-28 cells [2]; 100 μM Q10, at 48 hours",Down Regulated at
same,TNF Regulation,"SK-MEL-28 cells [2]; 100 μM Q10, at 48 hours",Up regulated at 48
same,VEGFA Regulation,"SK-MEL-28 cells [2]; 100 μM Q10, at 58 hours",Up regulated at 58
same,TNFRSF1A Regulation,"SK-MEL-28 cells [2]; 100 μM Q10, at 72 hours",Down Regulated at
same,expression of HNF4A,SK-MEL-28 cells [2]; cells following Q10 treatment,upmodulated
